Results reported in ChEMBL document CHEMBL4888484, “Replenishing the malaria drug discovery pipeline: Screening and hit evaluation of the MMV Hit Generation Library 1 (HGL1) against asexual blood stage Plasmodium falciparum ,using a nano luciferase reporter read-out” (2022).
Out of some 150,000 compounds screened, about 540 (0.36%) showed an effect of 50% or more. The list shows a part of the results.

The compounds below were run on Plasmodium falciparum (assay: Primary screen in NF54 nanoGlo assay, in single point, at 2uM, 72h; a lower Z score goes with more inhibition). Details: timepoint 72 hour.
Format: functional, Erythrocyte

| Compound | % Inhibition [%] | Z score |
| --- | --- | --- |
| CCC(C)(C)CN[C@H]1CC2(CN(C(=O)OC(C)(C)C)C2)n2ncnc21 | 4 | -0.49 |
| CN(C)S(=O)(=O)c1ccc(C(=O)N2CCCC[C@H]2c2cnn(C)c2)cc1 | -15 | 1.91 |
| CNc1ncccc1C(=O)NC(c1cccs1)[C@H]1C[C@@H](O)C1 (stereo partly specified) | 2 | -0.3 |
| COc1cccc(-c2cc(C(=O)N3CCc4ccccc4C3)nc3cc(-c4ccccc4)nn23)c1 | 3 | -0.62 |
| COc1ccc(CN2C(=O)N[C@@H](CCC(=O)Nc3nc(C)cs3)C2=O)cc1 | 2 | -0.27 |
| CN(C)Cc1ccnc(NCc2csnn2)c1 | -5 | 0.45 |
| c1csc(Cn2ncc3[nH]c(C4CCCC4)nc32)c1 | 9 | -1.67 |
| CNC(=O)COc1cccc(NC(=O)c2cccc3c4c([nH]c23)CCCCC4)c1 | -8 | 0.96 |
| CCOC(=O)c1cn([C@H]2CC(=O)N(c3ccccc3)C2=O)nn1 | 35 | -0.88 |
| CN1CCN2C(=O)c3ccccc3OCC[C@@H]3CC[C@@H](NC(=O)C4CCOCC4)[C@@H](CNC(=O)[C@@H]2C1)O3 | 5 | -0.78 |
| CC[C@H](NC(=O)N1CC(NC(C)=O)C1)c1nccs1 | -11 | 1.26 |
| Cc1cc(N2CCC(c3nnc(CN4CCN(C)CC4)n3C)CC2)ncn1 | -9 | 1.13 |
| COc1c(C)cc(-c2cccc(C(=O)N(C)Cc3cc(C)[nH]n3)c2)cc1C | -8 | 0.77 |
| CC(C)c1nnsc1CNC(=O)Nc1ccnn1C1CCCC1 | -11 | 1.52 |
| CCCC(=O)N1CCCN(c2ccc(=O)n(-c3ccc(C)cc3)n2)CC1 | 30 | -3.46 |
| Nc1c2c(-c3ccc(Cl)cc3)nc(NCc3ccccc3)nc2nn1-c1cccc(F)c1 | -18 | 3.56 |
| COc1cc(CN2CCOC[C@@H](O)C2)ccc1OCc1ccccc1 | -15 | 1.39 |
| O=C(NC1CCN(Cc2ccc(F)c(F)c2)CC1)C(=O)c1ccc2c(c1)CCC2 | 0 | 0 |
| CNC(=O)[C@@H](C)CN(C)C(=O)c1cccc(-c2ncn[nH]2)c1 | -8 | 1.07 |
| O=S(=O)(c1cccc(Cl)c1)N1CCC[C@@H]2C[C@@]21CO | -1 | 0.13 |
| CO[C@@H]1CCC[C@@H]2CN(C(=O)c3n[nH]c4ccccc34)C[C@@H]21 | 3 | -0.32 |

| Compound | % Inhibition [%] | Z score |
| --- | --- | --- |
| O=C(NCCn1nnc2ccc(F)cc2c1=O)N1CCOCC1 | -12 | 2.12 |
| O=C(c1c(Cl)cccc1Cl)N1CCC(Cc2ccccc2)CC1 | -5 | 0.57 |
| O=C(c1ccc(-c2ccsc2)cc1)N1CCC[C@H](S(=O)(=O)c2ccc(F)cc2)C1 | -10 | 1.25 |
| Cc1nccc(NC(=O)C2OCCC2C)c1Cl (stereo unspecified) | -17 | 3.16 |
| O=c1[nH]nc(CCNc2ccc(Br)cn2)[nH]1 | -5 | 0.74 |
| O=C(c1cc(C(F)F)ncn1)N1CCN(c2ncc(F)cn2)CC1 | 21 | -2.62 |
| Brc1ccc2[nH]cc(Cc3ccccn3)c2c1 | 4 | -0.61 |
| COc1ccc(S(=O)(=O)N(C)Cc2ccn(C3CCCC3)n2)cc1 | -9 | 1.23 |
| CN(CC1(c2ccccc2)CC1)C(=O)c1cccc2cn[nH]c12 | 1 | -0.19 |
| O=C(c1cc(Cl)cc(Cl)c1)N1CCN(c2nccc(-c3ccc4c(c3)OCO4)n2)CC1 | -12 | 1.68 |
| CCN(Cc1nn(-c2ccccc2)c2c1CN(Cc1cc(F)ccc1F)CC2)C(=O)c1cccc(Cl)c1 | -16 | 2.35 |
| CCCc1cc(C(=O)N2CCNC[C@H]2C(=O)N2CCN(C)CC2)ccn1 | -12 | 2.1 |
| Cc1c(C(=O)NC[C@H]2CCC[C@@H](CO)C2)cnn1C(C)C | -5 | 0.7 |
| CC(C)N1CCN([C@H]2CCOC3(CCN(C(=O)CCC4CCCC4)CC3)C2)CC1 | -8 | 1.43 |
| CCN(CC)c1ccc(NC(=O)Cn2nc(N3CCCCCC3)c3ccccc3c2=O)c(C)c1 | -15 | 2.29 |
| Cc1cc(=O)[nH]c(CNc2ccc(C(F)(F)F)nn2)n1 | 1 | -0.18 |
| COC1CCC(Nc2ncnc(N)c2Cl)C1 (stereo unspecified) | -4 | 0.78 |
| Cc1cc(-c2noc(CC3CCC(=O)CC3)n2)cc2nc[nH]c12 | -10 | 1.58 |
| COc1ccc(CCNC(=O)c2c[nH]c(=O)n(C)c2=O)cc1OC | -1 | 0.18 |
| CCCOc1ccc2ccccc2c1CN(C)C(=O)CCc1c(C)nn(CCC#N)c1C | -3 | 0.31 |
| Cc1cc(C(=O)N2CCN(C(=O)CC(C)C)[C@@H]3CS(=O)(=O)C[C@@H]32)[nH]n1 | 8 | -1.07 |

| Compound | % Inhibition [%] | Z score |
| --- | --- | --- |
| O=C(CN1CCOC1=O)N[C@H]1CC(=O)N(Cc2cccc3ccccc23)C1 | -5 | 0.81 |
| Cc1ccccc1N(C(=O)c1cncc(-n2ccnn2)c1)C(C)C | -4 | 0.67 |
| COCC1(CNC(=O)Nc2c(F)cccc2OC)CCC1 | -4 | 0.6 |
| O=C(c1ccc2cccc(F)c2n1)N1CCC[C@@](O)(CO)CC1 | -6 | 1.14 |
| Cn1c(CCc2ccccc2NS(=O)(=O)c2ccc3c(c2)CCCC3)nc2ccccc21 | -1 | 0.12 |
| Cc1nc(CC(=O)N2C[C@@H]3c4ccccc4OC[C@]3(CO)C2)cs1 | -16 | 1.45 |
| Oc1ccc(Br)cc1CNc1nc2ccccc2[nH]1 | 23 | -2.89 |
| O=C(CCc1ccc2c(c1)CN(S(=O)(=O)c1ccc3c(c1)CCC3)CCO2)N1CCCC1 | 5 | -0.59 |
| O=C1NCCC[C@@H]1NS(=O)(=O)c1ccc(OCC2CCCCC2)cc1 | -9 | 1.35 |
| COc1cc(C(=O)N2CCC[C@@]3(CCCc4ccccc43)C2)ncn1 | 8 | -1.07 |
| Cc1nc(C(=O)N2CC[C@H](Oc3ccncn3)C2)cs1 | -7 | 1.09 |
| FC1(F)CCN(Cc2nc(-c3ccccc3)cs2)CC1 | 5 | -0.99 |
| COCC1(c2noc(-c3oc(CC4CC4)nc3C)n2)CCOCC1 | -11 | 1.48 |
| CN(C)C(=O)O[C@H]1CCN(C(=O)Cc2ccn(-c3ccccc3)n2)C1 | -5 | 0.8 |
| COc1cc2c(-c3ccccc3)c(C)oc2cc1CN1CCN(CCO)CC1 | 0 | -0.01 |
| O=C(c1ccc2cccc(F)c2n1)N1CCC(O)(Cn2ccnc2)CC1 | 24 | -3.21 |
| C=CCN(Cc1cccc(OCC)c1)C(=O)C[C@H]1CNCCO1 | -3 | 0.45 |
| CCOc1cc(N)c(C(=O)O)cc1OCC | -3 | 0.55 |
| Cc1nc(CNC(=O)Cc2c3c(n(Cc4ccccc4)c2C)CCCC3=O)no1 | -17 | 1.62 |
| CC(=O)Nc1nc(C(=O)N2CC=C(c3ccnn3C)CC2)cs1 | -5 | 0.98 |
| Cc1cc(C(=O)NCC(=O)NCc2ccncc2)c(C)o1 | 0 | -0.07 |

| Compound | % Inhibition [%] | Z score |
| --- | --- | --- |
| O=S(=O)(c1ccccc1)N1CCCN(C[C@H]2CCC=CO2)CC1 | -9 | 0.88 |
| CCC(C)(C)OC(=O)c1cccc(C(=O)NC)c1 | -14 | 1.64 |
| O=C(NCc1cc(=O)cc[nH]1)C1CCC2CCCCC2C1 (stereo unspecified) | 11 | -1.39 |
| O=C(c1nc2ccc(Cl)cn2c1CN1CCC[C@H](O)C1)N1CCCCCCC1 | -20 | 2.18 |
| CC(C)c1csc(CN2CCC(CCC(=O)Nc3ccccc3Cl)CC2)n1 | 1 | -0.11 |
| CCN(CC1CCN(c2ccccn2)CC1)C(=O)c1cnn(C)c1C | -15 | 1.28 |
| CCC[C@@H](CC(=O)O)NC(=O)c1cc(C)cc(F)c1 | -3 | 0.31 |
| Cc1nnc(N2CCCc3ccccc32)[nH]c1=O | -13 | 1.67 |
| COc1ccc(CC(=O)N2CCN(c3nc(CCC(C)C)nc4c3cnn4-c3cccc(Cl)c3)CC2)cc1 | -6 | 0.58 |
| CCn1c(=O)c(C(=O)NCc2ccc(N3CCCC3)cc2)nc2cccnc21 | -6 | 1.03 |
| O=C(NCc1cccnc1N1CCOCC1)c1ncoc1C1CC1 | -16 | 2.15 |
| Cc1nc(NC(=O)N[C@H]2CCCC[C@@H]2c2ccccc2)nn1C | 2 | -0.24 |
| CC1CC1c1cc(NC(=O)Nc2cnc3c(Br)cccn23)[nH]n1 (stereo unspecified) | -3 | 0.34 |
| COC(=O)c1ccc2c(c1)n(Cc1nncn1C(C)C)c(=O)n2CC1CC1 | -8 | 1.62 |
| CCC(=O)N1CCN(C(=O)c2oc(Br)cc2C)C1 | -9 | 1.25 |
| CCc1ccccc1NC(=O)N1CCC(c2nnc(C(=O)Nc3ccc(OC)cc3)s2)CC1 | -20 | 1.83 |
| Cc1c(F)cc(C(=O)NCC(F)(F)F)cc1NCc1cscn1 | 2 | -0.35 |
| CCN(CC)[C@@H](CNC(=O)Cc1csc(C(C)C)n1)c1ccco1 | 5 | -0.41 |
| CC[C@]1(CO)CCCN(c2cncc(N(C)C)n2)C1 | 6 | -0.81 |
| C[C@H]1CCN(Cc2cncs2)CCS1(=O)=O | -19 | 1.92 |
